The campaign covered roughly 390,000 compounds. About 4,700 (1.2%) were called active. This list was built around the results that the source calls inconclusive (neither active nor inactive); the mix of calls is not that of the screen. The call rests on the fitted dose curve; in most records, active means well fitted inhibition curve with a large enough effect; inconclusive means small, poorly fitted or top-dose-only effect, or another doubt; inactive means no such curve, though single readings can be large or run the other way. Where the call is inconclusive, the potency comes from a doubtful curve fit.
These molecules were tested against DNA polymerase eta (Homo sapiens) (UniProt Q9Y253) (assay: qHTS for Inhibitors of Polymerase Eta). Settings: recombinant Pol eta, fluorescent DNA replication assay; series mostly up to 114 µM.
UniProt Q9Y253, sequence (Q9Y253 whole entry, looked up): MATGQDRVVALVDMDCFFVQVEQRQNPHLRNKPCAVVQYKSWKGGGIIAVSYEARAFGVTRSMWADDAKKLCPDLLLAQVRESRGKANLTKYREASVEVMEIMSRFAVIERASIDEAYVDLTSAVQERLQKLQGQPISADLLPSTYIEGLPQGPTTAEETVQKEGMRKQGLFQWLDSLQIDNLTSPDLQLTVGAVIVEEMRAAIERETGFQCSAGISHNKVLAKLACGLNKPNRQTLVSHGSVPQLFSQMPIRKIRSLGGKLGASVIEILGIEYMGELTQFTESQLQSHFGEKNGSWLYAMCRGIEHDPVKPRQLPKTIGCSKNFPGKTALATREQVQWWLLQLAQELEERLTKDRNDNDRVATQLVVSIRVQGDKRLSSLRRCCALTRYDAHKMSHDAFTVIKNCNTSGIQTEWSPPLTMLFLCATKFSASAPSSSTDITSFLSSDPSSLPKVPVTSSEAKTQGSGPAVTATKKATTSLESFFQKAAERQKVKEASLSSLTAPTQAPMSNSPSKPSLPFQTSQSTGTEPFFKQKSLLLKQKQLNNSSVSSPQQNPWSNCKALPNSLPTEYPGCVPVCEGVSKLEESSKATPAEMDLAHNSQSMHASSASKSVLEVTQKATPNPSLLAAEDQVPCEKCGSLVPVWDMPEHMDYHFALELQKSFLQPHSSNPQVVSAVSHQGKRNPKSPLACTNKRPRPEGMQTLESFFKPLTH
In short: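 Pol eta (10 nM) was preincubated with compounds for 15 min at room temperature, after which fluorescent replication substrate (50 nM final) was added to start the reaction. Fluorescence was read kinetically at 0 and 10 min.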
With `Cc1cc(C)nc(N/N=C/c2cccc(Cl)c2)n1` the Potency was “inactive”. In the case of `O=C(CC(=O)N/N=C/c1cccs1)NCc1ccccc1`, the Potency is reported as “inactive”. For `COc1ccc(C(=O)NC(=S)N2CCN(c3ccc([N+](=O)[O-])cc3)CC2)cc1`, the Potency was inconclusive: 39.8 µM [inhibitor, single point]. For `COCCCN(C(=O)CSc1nc2ccccc2c(=O)n1C)c1c(N)n(Cc2ccccc2)c(=O)[nH]c1=O`, the Potency was inconclusive: 6.31 µM [inhibitor, partial curve, poor fit]. For `CCC1=Nc2cc(C(=O)NCCCN3CCOCC3)ccc2Sc2ccccc21`, the Potency was inconclusive: 89.1 µM [inhibitor, partial curve, poor fit]. In the case of `C/C(=C\c1ccco1)C1C(C#N)=C(N)OC2=C1C(=O)CC(C)(C)C2` (centres undefined), the Potency is reported as inconclusive: 56.2 µM [inhibitor, partial curve, poor fit]. For `CC1(C)CC(=O)C(C(c2ccc(F)cc2)C2C(=O)CC(C)(C)CC2=O)C(=O)C1`, the Potency was “inactive”. For `COC(=O)c1ccc(/C=C2\N=C(SC)SC2=O)cc1`, the Potency was “inactive”. For `O=C(O)c1cccc(N2CCCC2)c1`, the Potency was inconclusive: 17.8 µM [inhibitor, partial curve, poor fit]. For `COc1cccc(/C=N/NC(=O)c2cc3c(OC)cccc3[nH]2)c1O`, the Potency was inconclusive: 28.2 µM [inhibitor, partial curve, poor fit]. For `CCOCCCNC(=O)c1cc2c(-c3ccc(OC)c(OC)c3)nn(C)c2s1`, the Potency was inconclusive: 63.1 µM [inhibitor, partial curve, poor fit]. In the case of `CCOc1ccccc1C=C1SC(=S)NC1=O`, the Potency is reported as inconclusive: 56.2 µM [inhibitor, partial curve, poor fit]. In the case of `Cc1ccn2c(=O)nc(SCC(=O)N3CCN(c4ccccc4)CC3)nc2c1`, the Potency is reported as active: 20 µM. With `O=C(O)c1cc(-c2ccc(/C=C3\NC(=O)N(c4ccc(Cl)cc4)C3=O)o2)ccc1Cl` the Potency was active: 3.55 µM. In the case of `O=C1N=C(c2ccccc2)S/C1=C\c1cccs1`, the Potency is reported as inconclusive: 39.8 µM [inhibitor, partial curve, poor fit]. With `CCOC(=O)C1CCN(c2nc(N)c3c(N)nc(SCC(=O)O)cc3c2C#N)CC1` the Potency was active: 7.08 µM. In the case of `COc1cc(OC)c(NC(=O)c2sc3ncn(CC(=O)N4CCOCC4)c(=O)c3c2C)cc1Cl`, the Potency is reported as inconclusive: 79.4 µM [inhibitor, partial curve, poor fit]. With `Cc1sc2cc3c(c(C(=O)c4ccccc4)[n+]2c1C)-c1cccc2cccc-3c12` the Potency was inconclusive: 56.2 µM [inhibitor, partial curve, poor fit]. For `Cc1c(N=Nc2c(-c3ccc([N+](=O)[O-])cc3)[nH]n(C(N)=S)c2=O)cccc1[N+](=O)[O-]`, the Potency was active: 50.1 µM. In the case of `Cn1ccnc1SCC(=O)Nc1sccc1C#N`, the Potency is reported as inconclusive: 12.6 µM [inhibitor, full curve, poor fit]. For `Cc1ccc(-n2nnnc2/C=C\Nc2cc(C)on2)cc1`, the Potency was inconclusive: 50.1 µM [inhibitor, partial curve, poor fit]. With `C=CCn1c(SCC(=O)c2ccc(O)c(O)c2)nnc1-c1cccc(OC)c1` the Potency was active: 11.2 µM. In the case of `COc1ccc(N2CCN(C(=O)c3ccc4c(c3)NC(=O)C(CSCc3ccccc3F)N4)CC2)cc1` (centres undefined), the Potency is reported as inconclusive: 50.1 µM [inhibitor, partial curve]. For `COc1ccc(S(N)(=O)=O)cc1C(=O)OCC(=O)N1c2ccccc2NC(=O)C1(C)C`, the Potency was inconclusive: 22.4 µM [inhibitor, partial curve, poor fit]. In the case of `CSc1ncc2c(n1)-c1cc(C)ccc1SC2`, the Potency is reported as inconclusive: 25.1 µM [inhibitor, partial curve, poor fit]. `Oc1ccc(N=Nc2ccccc2-c2nn[nH]n2)c(O)c1` was tested, and the Potency was active: 22.4 µM. `O=C(CCCn1ncn2c(cc3occc32)c1=O)N1CCc2ccccc2C1` was tested, and the Potency was inconclusive: 31.6 µM [inhibitor, single point]. In the case of `CCOC(=O)C1=C(CNCc2ccc(C)cc2)NC(=O)NC1c1ccc(OC)cc1` (centres undefined), the Potency is reported as inconclusive: 89.1 µM [inhibitor, partial curve, poor fit]. With `CC(=O)NC12CC3CC(C1)CC(C(=O)OCC(=O)Nc1ncc(Cl)cc1Cl)(C3)C2` the Potency was inconclusive: 22.4 µM [inhibitor, single point]. In the case of `COc1ccc(/C=C2\SC(=S)N(CCCC(=O)Nc3ccccc3C(=O)O)C2=O)cc1OC`, the Potency is reported as active: 89.1 µM. `COc1ccc(OC)c2sc(NC(=O)c3cccc(N4C(=O)CCC4=O)c3)nc12` was tested, and the Potency was inconclusive: 22.4 µM [inhibitor, full curve, poor fit]. `CCCOc1ccc(CC(=O)NCc2ccco2)cc1OC` was tested, and the Potency was inconclusive: 31.6 µM [inhibitor, single point]. For `O=C(NCc1ccc(Cl)cc1)C1CCCN(C(=O)c2cnn(-c3ccc(F)cc3)c2-n2cccc2)C1` (centres undefined), the Potency was “inactive”. For `CCC1=Nc2cc(C(=O)NCc3ccco3)ccc2Sc2ccccc21`, the Potency was “inactive”. For `CCOc1cc(N2CCOCC2)c(OCC)cc1NC(=O)c1cc(-c2ccco2)nc2ccccc12`, the Potency was active: 79.4 µM. For `CCOC(=O)Nc1nc2ccc(Cn3cccc3)cc2[nH]1`, the Potency was inconclusive: 56.2 µM [inhibitor, partial curve, poor fit]. For `CCOc1ccc(Nc2nc(NCC3CCCO3)c3ccccc3n2)cc1` (centres undefined), the Potency was inconclusive: 89.1 µM [inhibitor, partial curve, poor fit]. `COc1ccc(/C=C/C(=O)c2ccc(C)c([N+](=O)[O-])c2)cc1O` was tested, and the Potency was inconclusive: 15.8 µM [inhibitor, partial curve, poor fit]. In the case of `Cc1cc(C)c2nc(Nc3nc(CSc4nc5ccccc5[nH]4)cc(=O)[nH]3)nc(C)c2c1`, the Potency is reported as inconclusive: 44.7 µM [inhibitor, partial curve]. With `O=C1ON=C(c2ccccc2)/C1=C/c1ccco1` the Potency was inconclusive: 56.2 µM [inhibitor, partial curve, poor fit]. With `CC=Cc1cc2c(c(=O)o1)C(=O)C(O)C(C)O2` (centres undefined) the Potency was inconclusive: 15.8 µM [inhibitor, full curve, poor fit]. For `COc1ccc(S(=O)(=O)Nc2ccc3c(c2)OCO3)cc1OC`, the Potency was inconclusive: 39.8 µM [inhibitor, partial curve, poor fit]. `CC(=O)Nc1ccc2c(O)cc(S(=O)(=O)O)cc2c1` was tested, and the Potency was active: 31.6 µM. In the case of `COc1ccc(NC(=O)/C(C#N)=C\C=C\c2ccco2)cc1`, the Potency is reported as inconclusive: 35.5 µM [inhibitor, single point]. In the case of `O=C1c2ccccc2C(=O)c2c1ccc1c(=O)n(C3CCCCC3)[nH]c21`, the Potency is reported as inconclusive: 14.1 µM [inhibitor, full curve, poor fit]. In the case of `O=C(COc1ncnc2scc(-c3ccc(Cl)cc3)c12)NCc1ccco1`, the Potency is reported as inconclusive: 31.6 µM [inhibitor, partial curve, poor fit]. With `COc1ccc(/C=N\NC(=O)c2sc(N)nc2C)cc1OC` the Potency was inconclusive: 15.8 µM [inhibitor, single point]. `COc1cc(/C=C2\S/C(=N/S(=O)(=O)Cc3ccccc3)NC2=O)c([N+](=O)[O-])cc1OC` was tested, and the Potency was inconclusive: 56.2 µM [inhibitor, partial curve, poor fit]. In the case of `COc1ccc(NC(=O)C(c2ccc(C)cc2)N(C)C(=O)Cc2cccs2)cc1` (centres undefined), the Potency is reported as inconclusive: 79.4 µM [inhibitor, partial curve, poor fit]. `O=C(O)c1ccc(-n2c(-c3cc(-c4ccco4)[nH]n3)n[nH]c2=S)cc1` was tested, and the Potency was active: 10 µM. In the case of `Cc1ccc(C(=O)O)cc1-c1ccc(C=C2C(=O)c3ccccc3C2=O)o1`, the Potency is reported as active: 7.94 µM. With `O=C(Nc1cc2c3c(c1)CC(=O)N3CCC2)c1ccc(Br)cc1` the Potency was inconclusive: 79.4 µM [inhibitor, partial curve, poor fit]. With `O=C(/C=C/c1ccccc1Cl)c1ccccc(=O)c1O` the Potency was inconclusive: 39.8 µM [inhibitor, partial curve]. For `Cc1c(Cl)cnc(NC(=O)COC(=O)C2CC2)c1Cl`, the Potency was inconclusive: 39.8 µM [inhibitor, partial curve]. `COCC(=O)OC1CCn2c1nc1c2C(=O)C(C)=C(NC(C)=O)C1=O` (centres undefined) was tested, and the Potency was active: 3.98 µM. With `O=C(Nc1ccc2oc(-c3ccncc3)nc2c1)c1ccccc1` the Potency was “inactive”. In the case of `NC(=O)c1c(NC(=O)C2c3ccccc3Oc3ccccc32)sc2c1CCCCC2`, the Potency is reported as active: 35.5 µM. With `Cc1cccc(OCC(=O)OCc2cc(=O)n3nc(-c4cccs4)sc3n2)c1` the Potency was inconclusive: 79.4 µM [inhibitor, partial curve]. `COc1ccccc1NC(=O)Cc1ccc(-c2ccccc2)cc1` was tested, and the Potency was inconclusive: 89.1 µM [inhibitor, partial curve, poor fit]. For `COc1cc2c(cc1OC)CN(CC(=O)NC(=O)NCc1ccco1)CC2`, the Potency was inconclusive: 31.6 µM [inhibitor, single point]. With `CCOC(=O)c1cnn(-c2ccccc2)c1-n1cccc1C(=O)C(=O)N(CC)CC` the Potency was inconclusive: 89.1 µM [inhibitor, partial curve, poor fit]. In the case of `NC(=S)NN=Cc1ccc(-c2ccc(S(=O)(=O)Nc3ncccn3)cc2)o1`, the Potency is reported as active: 3.16 µM. With `O=Cc1cc(N=Nc2cccc(C(=O)O)c2)ccc1O` the Potency was inconclusive: 79.4 µM [inhibitor, partial curve]. For `O=C(Nc1ccc2c(c1)OCCO2)c1cccc2nc3ccccc3nc12`, the Potency was inconclusive: 12.6 µM [inhibitor, partial curve].

Source: PubChem BioAssay AID588591 (National Center for Advancing Translational Sciences (NCATS), 2011)
Potency means the concentration at half of the fitted maximal effect; tags describe the fitted curve by direction and shape.
